Consider 25 molecules from paper PMC4336329 (PLoS ONE, 2015).

About 14,000 (4.5%) of roughly 310,000 compounds showed an effect of 50% or more. Effects have a minus sign here. This is one part of the list.
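Note: peak tail current of the secondary pulse compared with the same well before compound.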

human ether-à-go-go-related gene (hERG) potassium channel, sequence (Q12809 whole entry, looked up): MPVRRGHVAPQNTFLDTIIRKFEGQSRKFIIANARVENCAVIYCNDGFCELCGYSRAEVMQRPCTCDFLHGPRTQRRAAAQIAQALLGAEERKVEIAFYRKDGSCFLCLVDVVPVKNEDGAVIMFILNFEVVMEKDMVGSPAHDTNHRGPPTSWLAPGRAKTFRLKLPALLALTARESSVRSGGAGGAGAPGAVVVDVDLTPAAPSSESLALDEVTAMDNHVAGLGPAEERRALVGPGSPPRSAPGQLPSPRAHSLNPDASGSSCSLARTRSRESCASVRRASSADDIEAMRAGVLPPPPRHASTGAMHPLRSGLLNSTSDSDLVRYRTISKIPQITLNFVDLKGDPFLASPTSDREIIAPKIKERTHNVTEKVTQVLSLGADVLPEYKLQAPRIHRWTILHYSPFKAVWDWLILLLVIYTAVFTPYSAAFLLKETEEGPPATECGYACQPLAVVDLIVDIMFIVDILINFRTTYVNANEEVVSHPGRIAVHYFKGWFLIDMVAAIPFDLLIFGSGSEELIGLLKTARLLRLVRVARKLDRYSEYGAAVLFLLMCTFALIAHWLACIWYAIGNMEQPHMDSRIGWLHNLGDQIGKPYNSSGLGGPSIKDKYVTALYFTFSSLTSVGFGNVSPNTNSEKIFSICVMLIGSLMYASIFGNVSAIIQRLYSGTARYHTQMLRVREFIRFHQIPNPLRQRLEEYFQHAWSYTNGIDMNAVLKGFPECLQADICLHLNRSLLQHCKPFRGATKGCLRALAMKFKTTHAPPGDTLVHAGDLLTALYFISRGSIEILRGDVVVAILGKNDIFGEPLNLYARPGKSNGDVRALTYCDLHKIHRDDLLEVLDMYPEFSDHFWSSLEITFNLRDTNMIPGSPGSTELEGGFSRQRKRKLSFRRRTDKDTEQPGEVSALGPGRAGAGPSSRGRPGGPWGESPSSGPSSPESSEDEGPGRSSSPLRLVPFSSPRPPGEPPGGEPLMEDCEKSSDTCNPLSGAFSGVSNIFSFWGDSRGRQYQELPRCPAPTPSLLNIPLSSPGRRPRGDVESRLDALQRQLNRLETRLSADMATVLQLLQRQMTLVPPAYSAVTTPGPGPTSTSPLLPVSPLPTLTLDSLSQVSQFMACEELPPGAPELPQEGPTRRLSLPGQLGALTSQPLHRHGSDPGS

This test concerns the target human ether-à-go-go-related gene (hERG) potassium channel (human, UniProt Q12809). Briefly: primary screen, population patch clamp on CHO cells stably expressing hERG.
Turning to `Cc1ccc(C(=O)NC(=O)CSc2ncccc2C(=O)O)cc1`, the “hERG current change (%, negative = inhibition) at 10uM” value came out at 11.5%.

`Br.CC(=O)c1sc(N/N=C2\CC3CCC2(C)C3(C)C)nc1C` (stereo not shown): the “hERG current change (%, negative = inhibition) at 10uM” value is 18.4%.

Regarding `COc1cc(/C=C2\SC(=N)N(c3ccc(F)cc3)C2=O)ccc1O`, the “hERG current change (%, negative = inhibition) at 10uM” value is 24.8%.

`CC(=O)c1cccc(OCC(O)CNCCOc2ccc(C)cc2)c1` (stereo not shown): the “hERG current change (%, negative = inhibition) at 10uM” value is on record as -36.5%.

Regarding `Cc1nonc1C(=O)N1CCCC(Nc2ccc(C(C)C)cc2)C1` (stereo not shown), the “hERG current change (%, negative = inhibition) at 10uM” value is listed as -14.2%.

Consider `CCc1nnc(NC(=O)CSCc2cc(=O)n3nc(C)sc3n2)s1`, for which the “hERG current change (%, negative = inhibition) at 10uM” value is recorded as 23.6%.

Take `Cc1cc(NC(=O)C2CCCCC2)ncc1NC(=O)c1ccccn1`: the “hERG current change (%, negative = inhibition) at 10uM” value is 8.6%.

Take `Cc1ccc(S(=O)(=O)Nc2c(C)nc3nc(C)[nH]n3c2=O)c(C)c1`: the “hERG current change (%, negative = inhibition) at 10uM” value was found to be 10.3%.

`CCN(CC)S(=O)(=O)c1cc(OC)c(C)cc1C`: the “hERG current change (%, negative = inhibition) at 10uM” value is reported as -5.58%.

In the case of `CC(=O)Nc1ccc(NC(=O)C2c3ccccc3Oc3ccccc32)cc1`, the “hERG current change (%, negative = inhibition) at 10uM” value is given as 5.31%.

Take `COc1cccc(CNC(=O)COC(=O)c2cccc(S(=O)(=O)N3CCN(C(C)=O)CC3)c2)c1`: the “hERG current change (%, negative = inhibition) at 10uM” value is on record as -9.4%.

With `O=C(CSc1nnc(-c2ccco2)n1Cc1ccccc1)c1ccc(F)cc1`, the “hERG current change (%, negative = inhibition) at 10uM” value is -45.7%.

For the molecule `O=C1CS/C(=N/N=C/c2cccs2)N1`, the “hERG current change (%, negative = inhibition) at 10uM” value was -20.8%.

Turning to `CCOC(=O)Cc1csc(NC(=O)CSc2nc(N)c3c(C)c(C)sc3n2)n1`, the “hERG current change (%, negative = inhibition) at 10uM” value is given as -4.9%.

As for `CC(=O)c1cccc(OCc2cc(C(=O)N(C)Cc3cnccn3)no2)c1`, the “hERG current change (%, negative = inhibition) at 10uM” value stood at 12.8%.

`CCOc1ccccc1NC(=S)N1CCN(c2ccccc2F)CC1`: the “hERG current change (%, negative = inhibition) at 10uM” value came to 6.51%.

In the case of `O=C(O)C(=O)O.O=S(=O)(c1ccc2ccccc2c1)N1CCN(Cc2ccccn2)CC1`, the “hERG current change (%, negative = inhibition) at 10uM” value was -1.99%.

`CC(C)(C)NC(=O)CN(C(=O)CS(=O)CC(=O)Nc1ccc(F)cc1)c1ccc(F)c(Cl)c1` (stereo not shown): the “hERG current change (%, negative = inhibition) at 10uM” value is recorded as -9.22%.

As to `CC(C)CC1(C)NC(=O)N(CC(=O)NC(=O)Nc2ccc3c(c2)OCCO3)C1=O` (stereo not shown), the “hERG current change (%, negative = inhibition) at 10uM” value is on record as -6.26%.

For `Cc1onc(-c2ccccc2Cl)c1C(=O)Nc1nn[nH]n1`, the “hERG current change (%, negative = inhibition) at 10uM” value came out at 6.51%.

For `Cc1cc(C)c(NC(=O)/C=C\C(=O)O)c(Cl)c1`, the “hERG current change (%, negative = inhibition) at 10uM” value was -3.75%.

Consider `O=C(COC(=O)CNC(=O)c1ccco1)Nc1ccc(Cl)cn1`, for which the “hERG current change (%, negative = inhibition) at 10uM” value is -17.8%.

In the case of `CCCOC(=O)c1ccc(NC(=O)CC(C)(C)C)cc1`, the “hERG current change (%, negative = inhibition) at 10uM” value is listed as -11.1%.

`O=C1N=C(N2CCCC2)S/C1=C\c1cn[nH]c1-c1ccccc1`: the “hERG current change (%, negative = inhibition) at 10uM” value is listed as -4.48%.

Take `CNC(=O)CCn1nc(-c2ccc(C)cc2)c2ccccc2c1=O`: the “hERG current change (%, negative = inhibition) at 10uM” value was -8.28%.
